In ChEMBL document CHEMBL5303300, “EUbOPEN Chemogenomics Library - Multiplex” (2023):

What was measured:
[1] = tested on: Fibroblast; assay: Multiplex assay against human fibroblast; assay type: toxicity, cell-based; conditions: number of replicates 2
Method in brief: (§1)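 Four dyes were applied at seeding to live cells: Hoechst33342, BioTracker Green Microtubule Cytoskeleton Dye, MitoTracker Red and Annexin V Alexa Fluor 680. Imaging after compound addition used a CQ1 microscope at 37°C and 5% CO2. CellPathfinder machine-learning gating then sorted cells into Hoechst high-intensity objects or normal cells, normal cells into healthy, pyknosed or fragmented nuclei, and pyknosed cells into mitotic or apoptotic, with tubulin, mitochondrial-mass and membrane-permeability phenotypes given as per cents of healthy-nucleus cells.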

[2] = tested on: U2OS; assay: Multiplex assay against U2OS; assay type: toxicity, cell-based; conditions: human, number of replicates 2; method in brief: as §1
[3] = 12 h, 10 µM, compound concentration 10 uM
[4] = 24 h, 10 µM, compound concentration 10 uM
[5] = 48 h, 10 µM, compound concentration 10 uM
[6] = 12 h, 1 µM, compound concentration 1 uM
[7] = 24 h, 1 µM, compound concentration 1 uM
[8] = 48 h, 1 µM, compound concentration 1 uM

Structure (SMILES) | Population Mitotic Cells (%) [2, 6] | Total Cell Count [2, 6] | Population Fragmented Nuclei (%) [2, 3] | Total Cell Count [2, 3] | Population Mitotic Cells (%) [2, 7] | Total Cell Count [2, 7] | Population Fragmented Nuclei (%) [2, 4] | Population Mitotic Cells (%) [2, 4] | Total Cell Count [2, 4] | Population Mitotic Cells (%) [2, 8] | Total Cell Count [2, 8] | Population Fragmented Nuclei (%) [2, 5] | Total Cell Count [2, 5] | Population Mitochondria Different-Phenotype (%) [2, 4] | Population Fragmented Nuclei (%) [2, 6] | Population Fragmented Nuclei (%) [2, 7] | Population Fragmented Nuclei (%) [2, 8] | also measured
COc1cc(OC)cc(-c2cc3cnc(N)nc3nc2NC(=O)NC(C)(C)C)c1 | 66, 18, 20, 55% | 42, 158, 48, 151 | 4% and 25% | 207, 40, 245, 72 | 40, 15, 50, 39% | 78, 226, 68, 201 | 5, 16, 6, 14% | 45, 50, 58, 16% | 286, 50, 355, 91 | 50, 15, 40, 25% | 129, 517, 101, 409 | 2, 15, 3, 17% | 515, 79, 616, 106 | – | – | – | – | Population Tubulin-Different-Phenotype (%) [1, 3]: 14, 6, 27, 8%; Population Tubulin-Different-Phenotype (%) [1, 4]: 15, 5, 20, 10%; Population Tubulin-Different-Phenotype (%) [1, 5]: 15, 5, 18, 10%; Population Apoptotic (%) [2, 3]: 90, 33, 47, 100%; Population Mitotic Cells (%) [2, 3]: 9, 66, 52, 0%
Fc1cccc(-n2cnc3c(NCc4nc5ccc(F)c(F)c5[nH]4)nc(N4CCOCC4)nc32)c1 | 19% and 76% | 267 and 65 | 50% and 10% | 36 and 145 | 36% and 2% | 60 and 280 | 42% and 7% | – | 40 and 143 | – | 49 and 253 | 48% and 7% | 43 and 140 | – | – | – | – | Population Fragmented Nuclei (%) [1, 4]: 51% and 11%; Population Healthy Nuclei (%) [1, 4]: 21% and 71%; Population Membrane Permeable-Phenotype (%) [1, 4]: 14% and 3%; Total Cell Count [1, 4]: 33 and 201; Population Apoptotic (%) [2, 6]: 80% and 23%; Population Healthy Nuclei (%) [2, 3]: 8% and 31%; Population Healthy Nuclei (%) [2, 4]: 2% and 16%; Population Membrane Permeable-Phenotype (%) [2, 4]: 0% and 34%; Population Mitochondria Different-Phenotype (%) [2, 8]: 0% and 36%
CC(C)(C)c1cnc(CSc2cnc(NC(=O)C3CCN(CC(=O)NCCOCCOCCOCCNc4cccc5c4C(=O)N(C4CCC(=O)NC4=O)C5=O)CC3)s2)o1 (centres undefined) | 60% and 3% | 75 and 329 | 28% and 8% | – | – | 95 and 400 | – | 34% and 6% | – | 78% and 10% | 142 and 742 | – | – | 6% and 34% | – | – | – | Population Tubulin-Different-Phenotype (%) [1, 6]: 23% and 5%; Population Mitochondria Different-Phenotype (%) [1, 5]: 7% and 26%; Population Apoptotic (%) [2, 8]: 21% and 89%
CN(C)C/C=C/C(=O)Nc1ccc(C(=O)N2CCCC(Nc3ncc(Cl)c(-c4c[nH]c5ccccc45)n3)C2)cc1 (centres undefined) | – | 42 and 234 | – | 25 and 188 | – | 36 and 280 | – | 6% and 20% | 168 and 23 | – | 74 and 465 | 6% and 28% | 175 and 25 | 64% and 11% | 21% and 6% | – | – | Population Membrane Permeable-Phenotype (%) [1, 5]: 5% and 20%; Population Mitochondria Different-Phenotype (%) [2, 3]: 0% and 39%; Population Healthy Nuclei (%) [2, 4]: 10% and 39%; Population Mitotic Cells (%) [2, 5]: 7% and 30%
CCC(=O)O[C@@H](OP(=O)(CCCCc1ccccc1)CC(=O)N1C[C@H](C2CCCCC2)C[C@H]1C(=O)[O-])C(C)C.[Na+] (some centres undefined) | 66% and 12% | 43 and 248 | 38% and 4% | 26 and 205 | 60% and 19% | 57 and 365 | – | – | 21 and 292 | 50% and 15% | 76 and 717 | 13% and 2% | 37 and 628 | – | 32% and 3% | 29% and 3% | 17% and 3% | Population Apoptotic (%) [1, 3]: 54% and 17%; Population Mitotic Cells (%) [2, 3]: 0% and 60%; Population Pyknosed Nuclei (%) [2, 5]: 21% and 5%
Cn1c(Nc2c(Cl)cccc2Cl)nc2ccc3nc[nH]c(=O)c3c21 | – | 50 and 212 | 29% and 4% | 54 and 205 | – | 58 and 296 | 33% and 7% | – | 70 and 260 | – | 80 and 578 | 44% and 13% | 86 and 344 | – | 26% and 5% | 27% and 3% | 21% and 2% | Population Membrane Permeable-Phenotype (%) [1, 5]: 42% and 13%
COc1cc2nc(-c3cc(F)ccc3O)nc(N[C@@H]3CNC[C@H]3C(C)(C)O)c2cc1OC.Cl.Cl | – | 56 and 208 | – | 34 and 189 | – | 52 and 254 | – | – | 168 and 27 | – | 63 and 371 | – | 29 and 168 | 40% and 0% | 25% and 7% | – | – | Population Fragmented Nuclei (%) [1, 6]: 5% and 16%; Population Fragmented Nuclei (%) [1, 3]: 5% and 16%; Population Membrane Permeable-Phenotype (%) [1, 3]: 33% and 3%; Population Fragmented Nuclei (%) [1, 4]: 5% and 16%; Population Membrane Permeable-Phenotype (%) [2, 4]: 100% and 0%; Population Tubulin-Different-Phenotype (%) [2, 4]: 100% and 0%
COC(=O)c1ccc2c(c1)NC(=O)/C2=C(\Nc1ccc(-c2nccn2C)cc1)c1ccccc1 | – | 34 and 160 | 40% and 6% | – | – | 222 and 52 | 34% and 5% | – | 52 and 224 | – | 84 and 421 | 31% and 6% | 56 and 317 | – | 26% and 3% | 2% and 21% | 19% and 3% | Population Fragmented Nuclei (%) [1, 7]: 10% and 31%; Population Fragmented Nuclei (%) [1, 8]: 10% and 34%; Population Apoptotic (%) [2, 6]: 0% and 35%
O=C(Nc1ccc(Cl)c(-c2ccccn2)c1)c1cccc(COc2ccc(Br)cc2CNCCO)c1.O=CO | – | 27 and 172 | 44% and 10% | 36 and 148 | – | 39 and 197 | 33% and 8% | 0% and 28% | 45 and 159 | – | 49 and 256 | 39% and 8% | 39 and 141 | – | – | 17% and 3% | 20% and 3% | Population Membrane Permeable-Phenotype (%) [1, 4]: 21% and 5%
CN(C)CCCN1c2ccccc2Sc2ccc(Cl)cc21.Cl [CHLORPROMAZINE HYDROCHLORIDE] | 100% and 33% | 28 and 197 | 42% and 5% | 61 and 191 | – | 30 and 271 | 46% and 6% | – | 78 and 254 | 100% and 29% | 29 and 552 | 48% and 8% | 78 and 313 | – | 50% and 3% | 46% and 1% | 41% and 4% | Population Tubulin-Different-Phenotype (%) [1, 8]: 22% and 7%; Population Apoptotic (%) [2, 6]: 0% and 66%; Population Apoptotic (%) [2, 3]: 20% and 63%; Population Mitochondria Different-Phenotype (%) [2, 3]: 6% and 21%; Population Apoptotic (%) [2, 7]: 0% and 76%; Population Apoptotic (%) [2, 8]: 0% and 70%; Population Membrane Permeable-Phenotype (%) [2, 8]: 18% and 1%; Population Mitochondria Different-Phenotype (%) [2, 8]: 12% and 1%; Population Mitotic Cells (%) [2, 5]: 7% and 25%
COc1c(OCCCN2CCOCC2)ccc2c1N=C(NC(=O)c1cnc(N)nc1)N1CCN=C21 [COPANLISIB] | – | 25 and 225 | 51% and 4% | 31 and 165 | 0% and 29% | 25 and 309 | 55% and 6% | – | 37 and 217 | – | 25 and 531 | 63% and 10% | 38 and 244 | 37% and 1% | 36% and 4% | 36% and 3% | 37% and 3% | Population Tubulin-Different-Phenotype (%) [1, 3]: 14% and 2%; Population Tubulin-Different-Phenotype (%) [1, 5]: 19% and 4%; Population Membrane Permeable-Phenotype (%) [2, 3]: 30% and 4%; Population Healthy Nuclei (%) [2, 4]: 22% and 71%; Population Membrane Permeable-Phenotype (%) [2, 4]: 50% and 7%; Population Healthy Nuclei (%) [2, 5]: 2% and 53%; Population Membrane Permeable-Phenotype (%) [2, 5]: 100% and 10%; Population Tubulin-Different-Phenotype (%) [2, 5]: 0% and 82%

Not every entry of the source has a single result; some have several. This is not the full list of results. An entry can have further records. Values given together are repeats in other runs, samples, wells, individuals or studies.
